Measured values published in the supplement of paper PMC4967469.
The IC50 comes from the fitted curve, where viability falls to half of the control; a fit beyond the top or the lowest dose is shown as a bound at that dose. AUC, from the same fit, is the share of area under the viability curve across the 256-fold dose range; values near 1 show little effect. For part of these data: An inferred top dose was derived from the fitted curves, not read from the paper.

What was measured:
Assay in all cases: Viability of human cancer cell lines after 72 h of drug (GDSC screen)
XMD15-27 = compound: C=CC(=O)Nc1ccc(C(=O)c2sc(Nc3ccc(N4CCN(C)CC4)cc3OC)nc2N)cc1 [XMD15-27]; conditions: top dose 10.24 µM; top dose inferred
Protocol: (§1)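 Human cancer cell lines in 384-well plates, medium with 10% serum, drug for 72 h over a 256-fold dose range (nine 2-fold or five 4-fold steps up to the top dose). Adherent lines were fixed and stained with the nucleic acid dye Syto60, suspension lines read with resazurin; signal relative to control wells, capped at 0 and 100%. One two-parameter sigmoid per drug and line, fitted in a mixed model over all curves with the slope shared within a line.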

SL 0101-1 = compound: CC(=O)O[C@@H]1[C@@H](OC(C)=O)[C@@H](O)[C@H](Oc2c(-c3ccc(O)cc3)oc3cc(O)cc(O)c3c2=O)O[C@H]1C [SL 0101-1]; conditions: top dose 10 µM; top dose inferred
Protocol: as §1

Temsirolimus = compound: CO[C@H]1C[C@@H]2CC[C@@H](C)[C@@](O)(O2)C(=O)C(=O)N2CCCC[C@H]2C(=O)O[C@H]([C@H](C)C[C@@H]2CC[C@@H](OC(=O)C(C)(CO)CO)[C@H](OC)C2)CC(=O)[C@H](C)/C=C(\C)[C@@H](O)[C@@H](OC)C(=O)[C@H](C)C[C@H](C)/C=C/C=C/C=C/1C [Temsirolimus]; conditions: top dose 0.2 µM
Protocol: as §1

Cell Line | AUC (XMD15-27) | IC50 (XMD15-27) | AUC (SL 0101-1) | IC50 (SL 0101-1) | AUC (Temsirolimus) | IC50 (Temsirolimus)
LAN-6 (neuroblastoma, adherent) | 0.984 | > 10.2 µM | 0.982 | > 10 µM | 0.97 | > 0.2 µM
NUGC-4 (stomach, adherent) | 0.987 | > 10.2 µM | 0.988 | > 10 µM | 0.906 | > 0.2 µM
SK-ES-1 (Ewing sarcoma, semi-adherent) | 0.98 | > 10.2 µM | 0.963 | > 10 µM | 0.797 | 0.101 µM
HCC1937 (breast, adherent) | 0.982 | > 10.2 µM | 0.984 | > 10 µM | 0.717 | 0.0573 µM
ES1 (Ewing sarcoma, adherent) | 0.983 | > 10.2 µM | 0.983 | > 10 µM | 0.619 | 0.0265 µM
H2595 (mesothelioma, adherent) | 0.98 | > 10.2 µM | 0.977 | > 10 µM | 0.828 | 0.197 µM
KYSE-450 (oesophagus, adherent) | 0.93 | > 10.2 µM | 0.984 | > 10 µM | 0.832 | 0.118 µM
NCI-H630 (large intestine, adherent) | 0.983 | > 10.2 µM | 0.986 | > 10 µM | 0.988 | > 0.2 µM
SK-MG-1 (glioma, adherent) | 0.987 | > 10.2 µM | 0.987 | > 10 µM | 0.731 | 0.0575 µM
NALM-6 (B-cell leukaemia, suspension) | 0.88 | 7.66 µM | 0.989 | > 10 µM | 0.928 | > 0.2 µM
EW-11 (Ewing sarcoma, adherent) | 0.968 | > 10.2 µM | 0.966 | > 10 µM | 0.497 | 0.0123 µM
H2795 (mesothelioma, adherent) | 0.779 | 4.1 µM | 0.978 | > 10 µM | 0.382 | 0.00593 µM
SNU-C5 (large intestine, adherent) | 0.986 | > 10.2 µM | 0.986 | > 10 µM | 0.89 | > 0.2 µM
ES7 (Ewing sarcoma, adherent) | 0.942 | > 10.2 µM | 0.98 | > 10 µM | 0.726 | 0.0558 µM
SK-N-FI (neuroblastoma, adherent) | 0.99 | > 10.2 µM | 0.989 | > 10 µM | 0.924 | > 0.2 µM
MV-4-11 (leukaemia, suspension) | 0.918 | > 10.2 µM | 0.958 | > 10 µM | 0.774 | 0.065 µM
OVK-18 (ovary, adherent) | 0.961 | > 10.2 µM | 0.974 | > 10 µM | 0.264 | 0.00244 µM
CAL-51 (breast, adherent) | 0.991 | > 10.2 µM | 0.938 | > 10 µM | 0.896 | 0.189 µM
